Measured values from the supplement of paper PMC4723716.
± gives the uncertainty stated by the source. The full ranking holds about 9,900 compounds; the median of “viability index relative to DMSO control” is about 1, and the lowest 2% start at about 0.85. The list shows a part of the results.

Tested on: Plasmodium falciparum NF54 stage V gametocytes
Experiment: viability index relative to DMSO control (fraction); higher = less gametocyte killing
Details: 2.5 µM, incubation time: 72 h
How it was run: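 Viability index is the count of red-stained particles in a well divided by the plate mean of solvent-only wells. Particles of 20–70 µm2 were counted in one imaged field per well after one to two hours with 3 µl of 2.5 µM MitoTracker Red CMXRos and 0.13% saponin. Before staining, P. falciparum NF54 stage V gametocytes in serum-free medium (0.75% gametocytemia, 1.25% hematocrit, 10 µl, 1,536-well plates) were kept with compound at 2.5 µM for 72 hr at 37°C under low oxygen.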

[1] = library set: Broad Institute DOS

| SMILES | viability index [1] | viability index (library set: Broad Institute Blood Stage) |
| --- | --- | --- |
| C[C@H](NC(=O)C[C@H]1C=C[C@H](NS(=O)(=O)c2cccc(F)c2)[C@@H](CO)O1)c1ccccc1 | 1.08 ± 0.19 | – |
| C/C=C/c1ccc2n(c1=O)C[C@H]1[C@H](CO)[C@@H](C(=O)N[C@H](C)c3ccccc3)[C@@H]2N1Cc1cncnc1.C/C=C\c1ccc2n(c1=O)C[C@H]1[C@H](CO)[C@@H](C(=O)N[C@H](C)c3ccccc3)[C@@H]2N1Cc1cncnc1 | 0.99 ± 0.074 | – |
| COc1ccc2c3c([C@H](CO)N(C[C@]33CCN(CC3)C(=O)Nc3cccc(F)c3)S(C)(=O)=O)n(C)c2c1 | 1.09 ± 0.095 | – |
| COc1ccc2c3c([C@@H](CO)N(Cc4cccc(F)c4)C[C@]33CCN(CC3)C(=O)Cc3ccccc3)n(C)c2c1 | 0.879 ± 0.033 | – |
| CN1CCCCN2[C@H](CO)[C@@H](c3ccc(-c4ccc(F)cc4)cc3)[C@@H]2C1 | 1 ± 0.011 | – |
| Cn1cnc(S(=O)(=O)N[C@H]2CC[C@H](CC(=O)NCC3CCCCC3)O[C@@H]2CO)c1 | 1.06 ± 0.01 | – |
| Cc1noc(C)c1S(=O)(=O)N(C)C[C@@H]1OCCCC[C@H](C)Oc2ccc(NC(=O)CCC(F)(F)F)cc2C(=O)N([C@@H](C)CO)C[C@H]1C | 1.03 ± 0.09 | – |
| CNC[C@H]1OCc2cnnn2CCCC(=O)N([C@@H](C)CO)C[C@@H]1C | 1.09 ± 0.024 | – |
| O=C(Nc1ccc(F)cc1)N1CC(=O)N2[C@H](CO)[C@H](c3ccc(-c4cccc(F)c4)cc3)[C@H]2C1 | 1.05 ± 0.019 | – |
| C[C@H](CO)N1C[C@H](C)[C@H](CN(C)C(=O)c2ccccc2)Oc2ncc(C#Cc3ccccc3)cc2C1=O | 0.829 ± 0.086 | – |
| C[C@@H]1CN([C@@H](C)CO)C(=O)c2cc(NC(=O)Nc3ccccc3)ccc2O[C@@H](C)CCCCO[C@@H]1CN(C)C(=O)Nc1ccccc1 | 0.995 ± 0.05 | – |
| C[C@H](CO)N1C[C@H](C)[C@@H](CN(C)S(=O)(=O)c2cn(C)cn2)OCc2cnnn2CCCC1=O | 1.02 ± 0.045 | – |
| COc1ccc(NC(=O)N2C[C@@H](O)COC[C@H]3O[C@H](CC(=O)NCc4ccncn4)CC[C@@H]32)cc1 | 1.07 ± 0.011 | – |
| O=C(CCN1CCCCC1)NCC[C@H]1CC[C@H](NS(=O)(=O)c2cccc(Cl)c2)[C@@H](CO)O1 | 0.996 ± 0.14 | – |
| COCCNC(=O)C[C@@H]1C[C@@H]2c3cc(NC(=O)CN(C)C)ccc3O[C@@H]2[C@H](CO)O1 | 1.02 ± 0.031 | – |
| C[C@H]1CN([C@@H](C)CO)C(=O)c2c(c3ccccc3n2C)-c2ccccc2CO[C@H]1CN(C)S(=O)(=O)c1ccc(F)cc1 | – | 0.929 ± 0.041 |
| COCC(=O)N1[C@H](C#N)[C@@H](c2ccccc2C2=CCCC2)[C@@H]1CO | 1.15 ± 0.044 | – |
| COc1ccc2c3c([nH]c2c1)[C@@H](CO)N(C[C@]31CN(C1)S(=O)(=O)c1ccc(C)cc1)C(=O)Nc1ccc(F)cc1 | 1.08 ± 0.16 | – |
| C[C@@H]1CCCCO[C@@H](CN(C)Cc2ccc3c(c2)OCO3)[C@@H](C)CN([C@@H](C)CO)C(=O)c2cc(NS(=O)(=O)c3cn(C)cn3)ccc2O1 | 1.12 ± 0.047 | – |
| COc1ccc(S(=O)(=O)N2C[C@H](O)COC[C@H]3O[C@H](CC(=O)N[C@H]4CCN(Cc5ccccc5)C4)CC[C@@H]32)cc1 | 1.08 ± 0.067 | – |
| COc1cccc(NC(=O)N2[C@@H](CO)[C@@H](c3ccccc3)[C@@H]2CNCC(C)C)c1 | 0.938 ± 0.026 | – |
| CO[C@@H]1CN(C)C(=O)c2cc(NC(=O)c3ccc(Oc4ccccc4)cc3)ccc2OC[C@H](C)NC[C@@H]1C | 1.06 ± 0.037 | – |

| SMILES | viability index [1] | viability index (library set: Broad Institute Blood Stage) |
| --- | --- | --- |
| CN1C(=O)c2cc(NC(=O)c3cccc(C(F)(F)F)c3)ccc2OC[C@H]2O[C@@H](CC(=O)NCCN3CCCC3)CC[C@H]21 | 1.04 ± 0.054 | – |
| O=C(C[C@H]1CC[C@H]2NC[C@@H](O)COC[C@@H]2O1)NCc1ccc2c(c1)OCO2 | 1.078 ± 0.0052 | – |
| O=C(Nc1ccc(F)cc1)N1CC(=O)N2[C@H](CO)[C@H](c3ccc(C#Cc4cccnc4)cc3)[C@@H]2C1 | 1.028 ± 0.0039 | – |
| CN1CCN(C(=O)C[C@H]2CC[C@@H]3[C@H](COC[C@@H](O)CN3C(=O)c3ccccc3F)O2)CC1 | 1.02 ± 0.11 | – |
| COc1ccccc1C(=O)Nc1ccc2c(c1)C(=O)N(C)[C@H]1CC[C@H](CC(=O)Nc3cccc(C(C)C)c3)O[C@@H]1CO2 | 1.04 ± 0.1 | – |
| C[C@H]1CN([C@@H](C)CO)C(=O)c2cc(NS(C)(=O)=O)ccc2O[C@@H]1CN(C)C | 1.05 ± 0.031 | – |
| N#C[C@H]1[C@@H](c2ccccc2-c2cccc(F)c2)[C@@H](CO)N1C(=O)C1CC1 | 1.06 ± 0.13 | – |
| O=C1C[C@H](c2ccccc2)C(=O)N[C@H](c2ccccc2)C/C=C\C[C@H](c2ccccc2)N1 | 1.02 ± 0.018 | – |
| CCCNC(=O)N1CC(=O)N2[C@H](CO)[C@@H](c3ccc(C#CCC4CCCC4)cc3)[C@H]2C1 | 0.971 ± 0.049 | – |
| CN(C)C(=O)[C@@H]1[C@@H](CO)[C@@H]2Cn3c(cccc3=O)[C@H]1N2CC1CCOCC1 | 1.07 ± 0.064 | – |
| C[C@@H]1CN([C@H](C)CO)C(=O)CCCn2cc(nn2)CO[C@H]1CN(C)C(=O)c1ccc(N2CCN(C)CC2)cc1 | 1.05 ± 0.054 | – |
| CCCNC(=O)N1CC[C@@H]2[C@@H](CO)N(C)c3ccc(-c4cccc(OC)c4)cc3[C@@H]21 | 1.16 ± 0.047 | – |
| C[C@H](NC(=O)C[C@H]1CC[C@H]2[C@H](COc3ccc(NS(=O)(=O)c4ccc(Cl)cc4)cc3C(=O)N2C)O1)c1ccccc1 | 0.976 ± 0.049 | – |
| CCCC(=O)N1C[C@@H]2[C@H](c3ccccc31)[C@@H](CO)N2C(=O)Nc1ccc(F)cc1 | 1.02 ± 0.063 | – |
| COc1ccc2c3c([nH]c2c1)[C@H](CO)N(Cc1cccc(F)c1)C[C@]31CCN(CC1)C(C)=O | 0.989 ± 0.024 | – |
| O=C(C[C@H]1CC[C@H](NC(=O)c2ccc(F)cc2)[C@@H](CO)O1)NCCc1ccccc1 | 1.09 ± 0.074 | – |
| O=C(C[C@H]1C=C[C@H](NC(=O)Cc2ccccn2)[C@@H](CO)O1)NCCc1ccncc1 | 1.008 ± 0.008 | – |
| Cc1ccc(S(=O)(=O)N2[C@@H]3CNC[C@H]2[C@H]3c2ccc(/C=C/c3ccccc3)cc2)cc1 | 1.07 ± 0.034 | – |
| CCS(=O)(=O)Nc1ccc2c(c1)C(=O)N(C)[C@@H]1CC[C@@H](CC(=O)NC3CCCCC3)O[C@@H]1CO2 | 1.04 ± 0.082 | – |
| CO[C@H]1CN(C)C(=O)c2cc(NC(=O)Cc3ccccc3)ccc2OC[C@H](C)N(C(=O)c2ccccc2F)C[C@@H]1C | 1.088 ± 0.0068 | – |
| CN1CCN(C(=O)C[C@H]2CC[C@@H]3[C@H](COC[C@@H](O)CN3C(=O)Nc3ccc4c(c3)OCO4)O2)CC1 | 1.05 ± 0.017 | – |
